Results published in PubChem BioAssay AID1768 (National Center for Advancing Translational Sciences (NCATS), 2009).
“And” between values parts separate entries of the source, which are not always exact repeats. Equal values may be shown once. Hit rate of the full screen: of about 270,000 compounds, about 620 (0.23%) were called active. This list was built around the results that the source calls inconclusive (neither active nor inactive); the mix of calls is not that of the screen. Calls come from the whole dose curve; as a rule, active = well fitted inhibition curve with a large enough effect in the polarisation, with a control signal flat (not every such curve was filed as active); inconclusive = small, poorly fitted or top-dose-only effect, or effect the other way, or a change in a side signal; inactive = no such curve, though single readings can be large or run the other way; the % refers to the polarisation. Potencies beside an inconclusive call are fits to weak or partial responses and may not hold up. “Side channel” marks fits to a control or component signal instead of the main read-out.

The compounds below were run against Menin (Homo sapiens) (UniProt O00255) (assay: qHTS Assay for Inhibitors Targeting the Menin-MLL Interaction in MLL Related Leukemias: Competition With Texas Red Labeled MLL-derived Mutant Peptide). Conditions: fluorescence polarization; FP activity change, negative = inhibition: at 61.6 µM (top of the series).
Sequence of UniProt O00255 (O00255 whole entry, looked up): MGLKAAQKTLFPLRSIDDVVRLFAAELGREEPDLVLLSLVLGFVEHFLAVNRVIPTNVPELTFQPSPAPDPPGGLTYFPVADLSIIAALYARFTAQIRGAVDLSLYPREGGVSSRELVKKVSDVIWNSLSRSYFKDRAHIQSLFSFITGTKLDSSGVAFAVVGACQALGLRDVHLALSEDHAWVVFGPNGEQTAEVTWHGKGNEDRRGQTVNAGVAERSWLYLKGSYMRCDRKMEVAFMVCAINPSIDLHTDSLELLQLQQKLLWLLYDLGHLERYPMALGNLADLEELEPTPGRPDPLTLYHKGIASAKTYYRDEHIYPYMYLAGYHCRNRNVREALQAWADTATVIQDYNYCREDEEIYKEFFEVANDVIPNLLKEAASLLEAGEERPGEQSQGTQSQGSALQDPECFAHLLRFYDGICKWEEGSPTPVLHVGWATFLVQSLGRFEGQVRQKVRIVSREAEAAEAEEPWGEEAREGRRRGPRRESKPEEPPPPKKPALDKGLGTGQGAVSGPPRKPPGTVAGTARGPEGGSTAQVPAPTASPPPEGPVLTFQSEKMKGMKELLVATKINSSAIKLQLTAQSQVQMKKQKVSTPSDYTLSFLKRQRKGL
Potency is the fitted concentration of half-maximal effect; tags give direction and shape of the fitted curve or compound fluorescence and quenching.
Throughout, for FP activity change, negative = inhibition: % of control where 0% means no effect.

| SMILES | Potency | FP activity change, negative = inhibition |
| --- | --- | --- |
| COc1cc(OC)cc(C(=O)Oc2ccc(/C=N/Nc3nc4ccccc4s3)cc2OC)c1 | inconclusive: 6.31 µM [quencher, side channel, partial curve] | – |
| COc1ccc(/C=C2\SC(=S)N(CCC(=O)Nc3ccc(C(=O)O)cc3)C2=O)cc1OC | inconclusive: 39.8 µM [fluorescent, side channel, single point] | – |
| Cc1cc(NC(=O)c2ccccc2)cc(NC(=O)c2ccccc2)c1C | inconclusive: 31.6 µM [fluorescent, side channel, single point] | – |
| CCCc1cc(=O)n2[nH]cc(-c3ccc(Cl)cc3)c2n1 | inconclusive: 25.1 µM [quencher, side channel, single point] | – |
| CCOC(=O)c1c(C)oc2c(CN3CCN(C)CC3)c(Br)c(OC)c(O)c12 | inconclusive: 8.91 µM [fluorescent, side channel, partial curve] | – |
| CCOc1cc(/C=C2\C(=N)N3N=CSC3=NC2=O)ccc1OS(=O)(=O)c1ccccc1 | inconclusive: 10 µM [quencher, side channel, partial curve] | – |
| O=C(NC(=S)Nc1cccc2c(O)cccc12)c1ccco1 | inconclusive: 25.1 µM [quencher, side channel, partial curve] | – |
| CC(=O)Oc1ccc2c(c1)Oc1cc(OC(C)=O)ccc1C21OC(=O)c2ccccc21 | inconclusive: 5.62 µM [inhibitor, full curve] | – |
| CCN(CC)c1ccc(C=Nc2ccc(N(C)C)cc2)c(O)c1 | active: 20 µM | – |
| O=C(C1=C[C@@H](c2ccc(C(F)(F)F)cc2)C[C@@H](OCc2ccc(CO)cc2)O1)N1CCN(Cc2ccccc2)CC1 | inconclusive: 8.91 µM [fluorescent, side channel, full curve, poor fit] | – |
| CC1CCC(n2c(=S)[nH]c3ccccc3c2=O)CC1 (stereo not given) | inconclusive: 3.55 µM [quencher, side channel, partial curve] | – |
| COc1cc(OC)cc(C(=O)Nc2ccc(C(=O)c3ccncc3)cc2)c1 | inconclusive: 14.1 µM [quencher, side channel, partial curve] | – |
| COc1ccc(N2CCN(C(=O)CSc3nnc4n3C(C)(C)Cc3ccccc3-4)CC2)cc1 | inconclusive: 11.2 µM [inhibitor, partial curve] | – |
| C/C(=N\NC(=O)c1c(Br)c(C)nn1C)c1ccc(NC(=O)C(C)Oc2ccc(Cl)cc2C)cc1 (stereo not given) | inconclusive: 7.08 µM [inhibitor, single point] | – |
| Cc1ccccc1NC(=O)c1ccccc1NC(=O)c1cccs1 | inconclusive: 22.4 µM [fluorescent, side channel, single point] | – |
| COC(=O)CCN(C(=O)c1ccc(C)c([N+](=O)[O-])c1)c1ccccn1 | inconclusive: 100 µM [inhibitor, partial curve, poor fit] | – |
| O=C(CCNC(=O)N1CC(=O)Nc2ccccc21)Nc1ccc(Cl)cc1 | inconclusive: 39.8 µM [fluorescent, side channel, single point] | – |
| CSc1nsc(/C=C/Nc2ccc(C(=O)O)cc2)c1C#N | inconclusive: 17.8 µM [quencher, side channel, partial curve] | – |
| CCn1c2ccccc2c2cc([N+](=O)[O-])ccc21 | inconclusive: 28.2 µM [quencher, side channel, single point] | – |
| Nc1c(N=Nc2ccc(-c3ccc(N=Nc4cc(S(=O)(=O)O)c5ccccc5c4N)cc3)cc2)cc(S(=O)(=O)O)c2ccccc12 | inconclusive: 28.2 µM [fluorescent, side channel, partial curve] and inconclusive: 35.5 µM [fluorescent, side channel, partial curve] | – |
| COc1ccc(C(=O)c2c(C)oc3cc([N+](=O)[O-])c(O)c([N+](=O)[O-])c23)cc1 | inconclusive: 39.8 µM [quencher, single point] | – |
| C=CCN(CC=C)C(=O)COC(=O)c1n[nH]c2ccccc12 | inconclusive: 22.4 µM [inhibitor, partial curve] | – |
| O=C(Nc1ccc([N+](=O)[O-])cc1)C1CC1(c1ccccc1)c1ccccc1 (stereo not given) | inconclusive: 11.2 µM [quencher, side channel, partial curve] | – |
| O=C(Nc1ccccc1)c1ccc(Nc2c([N+](=O)[O-])cc([N+](=O)[O-])c3ccccc23)cc1 | inconclusive: 14.1 µM [quencher, side channel, partial curve] | – |
| C/C(N)=C(/C#N)C(=O)CSc1nc2cc(Cl)ccc2c(=O)n1Cc1ccco1 | inconclusive: 39.8 µM [quencher, side channel, single point] | – |
| O=C(NCCc1ccccc1)c1cccc(Br)n1 | – | inactive: -9.11% [at 94.6 µM] |
| COc1ccc(Nc2cc(Nc3ccc(OC)cc3)ncn2)cc1 | inconclusive: 6.31 µM [quencher, side channel, single point] | – |
| O=C(CSc1nc2ccccc2c2c1CCCC2)N1CCOCC1 | inconclusive: 25.1 µM [fluorescent, side channel, partial curve] | – |

| SMILES | Potency | FP activity change, negative = inhibition |
| --- | --- | --- |
| CN(C)c1ccc(/C=N/N=C2/NC(=O)/C(=C/c3ccc([N+](=O)[O-])cc3)S2)cc1 | inconclusive: 8.91 µM [quencher, side channel, full curve] | – |
| CCCCCC(=O)Nc1ccc(C(=O)N/N=C/c2ccc([N+](=O)[O-])cc2)cc1 | inconclusive: 28.2 µM [quencher, side channel, partial curve] | – |
| Cc1cc(NC(=S)N(Cc2ccc(Cl)cc2)Cc2ccc(C(=O)O)cc2)ccc1Cl | inconclusive: 11.2 µM [quencher, side channel, partial curve] | – |
| CCOC(=O)c1csc(N)n1 | inconclusive: 14.1 µM [quencher, side channel, partial curve] | – |
| O=C1CCCc2c1[nH]c1ccccc21 | inconclusive: 14.1 µM [quencher, side channel, partial curve] | – |
| Cc1ccc(NC(=O)c2ccc(Nc3c([N+](=O)[O-])cc([N+](=O)[O-])cc3[N+](=O)[O-])cc2)cc1 | inconclusive: 15.8 µM [quencher, side channel, partial curve] | – |
| Cc1ccc(S(=O)(=O)N2CCC(NC(=O)c3cccc(C)c3)CC2)cc1 | inconclusive: 39.8 µM [fluorescent, side channel, single point] | – |
| COC(=O)c1ccc(C2Nc3cccc4cccc(c34)N2)cc1 | inconclusive: 12.6 µM [quencher, side channel, partial curve] | – |
| CC(C)n1c(SC2CCOC2=O)nc2ccccc21 (stereo not given) | inconclusive: 12.6 µM [inhibitor, partial curve] | – |
| O=S(=O)(c1cccc(Br)c1)N1CCN(CCc2ccccc2)CC1 | inconclusive: 3.16 µM [inhibitor, partial curve] | – |
| CC(=O)N1CCN(C(=O)COc2ccc(Br)cc2)CC1 | inconclusive: 0.708 µM [inhibitor, full curve] | – |
| Cc1ccc(Nc2nc3ccccc3c(=O)s2)cc1C | inconclusive: 20 µM [fluorescent, side channel, single point] | – |
| Cc1ccc(Cn2ccc(NC(=O)c3cc(-c4ccc(Br)cc4)on3)n2)cc1 | inconclusive: 3.55 µM [inhibitor, partial curve] | – |
| O=C(Nc1ccc2ccccc2c1)C(c1ccccc1)C1CCCC1 (stereo not given) | inconclusive: 39.8 µM [inhibitor, single point] | – |
| Cc1nc(SCC(=O)Nc2nc3ccccc3s2)c(C#N)c(C)c1C | inconclusive: 39.8 µM [inhibitor, single point] | – |
| NC(=O)Nc1ccc(C(=O)OCC(=O)Nc2ccc([N+](=O)[O-])cc2C(F)(F)F)cc1 | inconclusive: 20 µM [quencher, partial curve] | – |
| CC1(C)NC(=O)N(CC(O)CN2CCCC2)C1=O (stereo not given) | inconclusive: 5.62 µM [inhibitor, single point] | – |
| COc1ccc(CC2=CC(=O)c3ccccc3C2=O)cc1 | inconclusive: 25.1 µM [quencher, side channel, single point] | – |
| CCCCC(c1nnnn1CS(=O)(=O)c1ccc(C)cc1)N1CCN(C)CC1 (stereo not given) | inconclusive: 8.91 µM [inhibitor, single point] | – |
| COc1cc2c(cc1OC)C(c1cc3cc4c(cc3[nH]c1=O)OCO4)N(C(=O)C1CC1)CC2 (stereo not given) | – | inactive: 0.0879% |
| O=C(Nc1cccc(Cl)c1)N1CCCC1 | inconclusive: 22.4 µM [inhibitor, single point] | – |
| CN(C)c1ccc(/C=N/Nc2cccc(C(=O)O)c2)cc1 | inconclusive: 28.2 µM [quencher, side channel, partial curve] | – |
| COC1=C(N)C(=O)c2nc(-c3nc(C(=O)O)c(C)c(-c4ccc(OC)c(OC)c4O)c3N)ccc2C1=O | inconclusive: 12.6 µM [quencher, side channel, partial curve] | – |
| Cc1ccc(C(=O)N2CCCN(c3nc4cc5c(cc4cc3C#N)OCO5)CC2)cc1 | inconclusive: 4.47 µM [inhibitor, single point] | – |
| COC(=O)C1=C(C)NC(C)=C([N+](=O)[O-])[C@@H]1c1ccccc1C(F)(F)F | inactive | – |
| O=C(COc1ccc2ccc(=O)oc2c1)N1CCc2ccccc21 | inconclusive: 35.5 µM [fluorescent, side channel, single point] | – |
| Cc1ccccc1OCCn1cnc2c(N)ncnc21 | – | inactive: -9.53% |
